Data published in the supplement of paper PMC12217912.
The list shows a part of the results. The full chains were built here from the parent and the listed change. Values near 0.05 are background.

B1: TEV protease; numbered along this chain (parent)
chain: MGESLFKGPRDYNPISSSICHLTNESDGHTTSLYGIGFGPFIITNKHLFRRNNGTLVVQSLHGVFKVKDTTTLQQHLVDGRDMIIIRMPKDFPPFPQKLKFREPQREERICLVTTNFQTKSMSSMVSDTSCTFPSGDGIFWKHWIQTKDGQCGSPLVSTRDGFIVGIHSASNFTNTNNYFTSVPKNFMELLTNQEAQQWVSGWRLNADSVLWGGHKVFMVKPEEPFQPVKEATQL

Variants of: B1
Test: raw area under fraction-flipped curve 0-4 h after induction (AUC4h, not background-subtracted), DNA-recorder readout of cleavage of the substrate (dimensionless); higher = more cleavage of the substrate by the protease variant
Conditions: temperature: 34 °C; time window: 0-4 h after rhamnose induction
Description: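 In vivo DNA recorder in E. coli TOP10(DE3) ΔrhaA at 34 °C. Each TEVp single-site mutant (parent TEVp 0) is paired with a single-site variant of the 7-mer TEVs (canonical ENLYFQ|S). The substrate sits between flexible linkers in a Bxb1-sfGFP-TEVs-SsrA fusion, so cleavage stabilises Bxb1 and speeds flipping of a recombination array, read by NGS. The value is the raw area under the fraction-flipped curve over 0-4 h after rhamnose induction (AUC4h), with ≥20 reads per time point. It is not background-subtracted; inactive controls average about 0.047.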
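Further: Bxb1 expression induced with 0.2% (w/v) L-rhamnose at OD600 near 0.5, cultures sampled hourly, flipped fraction per protease–substrate barcode pair counted by paired-end Illumina sequencing.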

Variant	area with substrate ENLAFQS	area with substrate ENLDFQS	area with substrate ENLFFQS	area with substrate ENLGFQS	area with substrate ENLHFQS	area with substrate ENLIFQS	area with substrate ENLKFQS	area with substrate ENLMFQS	area with substrate ENLPFQS	area with substrate ENLQFQS	area with substrate ENLRFQS	area with substrate ENLSFQS	area with substrate ENLWFQS	area with substrate ENLCFQS	area with substrate ENLEFQS	area with substrate ENLLFQS	area with substrate ENLTFQS	area with substrate ENLNFQS	area with substrate ENLVFQS
MGESLFKGPRDYNPISSSICHLTNESDGHTTSLYGIGFGPFIITNKHLFRRNNGTLVVQSLHGVFKVKDTTTLQQHLVDGRDMIIIRMPKDFPPFPQKLKFREPQREERICLVTTNFQTKSMSSMVSDTSCTFPSGDGIFWKHWIQTKDGQCGSPLVSTRDGFIVGIHSASNFTNKNNYFTSVPKNFMELLTNQEAQQWVSGWRLNADSVLWGGHKVFMVKPEEPFQPVKEATQL [T176K]	0.0572	0.0629	0.0677	0.0727	0.0603	0.0652	0.0547	0.0747	0.0611	0.0745	0.0712	0.0564	0.0678						
MGESLFKGPRDYNPISSSICHLTNESDGHTTSLYGIGFGPFIITNKHLFRRNNGTLVVQSLHGVFKVKDTTTLQQHLVDGRDMIIIRMPKDFPPFPQKLKFREPQREERICLVTTNFQTKSMSSMVSDTSCTFPSGDGIFWKHWIQTKDGQCGSPLVSTRDGFIVGIHSASNFTNTNNYNTSVPKNFMELLTNQEAQQWVSGWRLNADSVLWGGHKVFMVKPEEPFQPVKEATQL [F180N]	0.0564	0.0582	0.0613		0.0514	0.0583	0.0426					0.103		0.0399	0.0687	0.0602	0.0672		
MGESLFKGPRDYNPISSSICHLTNESDGHTTSLYGIGFGPFIITNKHLFRRNNGTLVVQSLHGVFKVKDTTTLQQHLVDGRDMIIIRMPKDFPPFPQKLKFREPQREERICLVTTNFQTKSMSSMVSDTSCTFPSGDGIFWKHWIQTKDGQCGSPLVSTRDGFIVGIHSASNFTNTNNYFTSHPKNFMELLTNQEAQQWVSGWRLNADSVLWGGHKVFMVKPEEPFQPVKEATQL [V183H]	0.0916	0.0564	0.0695	0.058	0.0659				0.0373		0.0562	0.0476	0.0388	0.0435	0.0522	0.0522	0.0627	0.0685	
MGESLFKGPRDYNPISSSICHLTNESDGHTTSLYGIGFGPFIITNKHLFRRNNGTLVVQSLHGVFKVKDTTTLQQHLVDGRDMIIIRMPKDFPPFPQKLKFREPQREERICLVTTNFQTKSMSSMVSDTSCTFPSGDGIFWKHWIQTKDGQCGSPLVSTRDGFIVGIHSASNFTNTNNYFTSVPKNMMELLTNQEAQQWVSGWRLNADSVLWGGHKVFMVKPEEPFQPVKEATQL [F187M]	0.0416	0.0609	0.111	0.0562	0.0724		0.07				0.069	0.0592	0.0612	0.0739	0.0531	0.0723		0.0652	0.0733
MGESLFKGPRDYNPISSSICHLTNESDGHTTSLYGIGFGPFIITNKHLFRRNNGTLVVQSLHGVFKVKDTTTLQQHLVDGRDMIIIRMPKDFPPFPQKLKFREPQREERICLVTTNFQTKSMSSMVSDTSCTFPSGDGIFWKHWIQTKDGQCGSPLVSTRDGFIVGIHSASNFTNTNNYFTSVPKNFMEYLTNQEAQQWVSGWRLNADSVLWGGHKVFMVKPEEPFQPVKEATQL [L190Y]	0.0589	0.0752	0.0769	0.0455	0.0693	0.0701	0.15		0.0534			0.0775	0.0783	0.0741	0.0571	0.052	0.073	0.0643	
MGESLFKGPRDYNPISSSICHLTNESDGHTTSLYGIGFGPFIITNKHLFRRNNGTLVVQSLHGVFKVKDTTTLQQHLVDGRDMIIIRMPKDFPPFPQKLKFREPQREERICLVTTNFQTKSMSSMVSDTSCTFPSGDGIFWKHWIQTKDGQCGSPLVSTRDGFIVGIHSASNFTNTNNYFTSVPKNFMELATNQEAQQWVSGWRLNADSVLWGGHKVFMVKPEEPFQPVKEATQL [L191A]	0.0484		0.0471			0.0705	0.0641	0.0548	0.0409			0.0669	0.0399		0.0592	0.0508		0.0546	
MGESLFKGPRDYNPISSSICHLTNESDGHTTSLYGIGFGPFIITNKHLFRRNNGTLVVQSLHGVFKVKDTTTLQQHLVDGRDMIIIRMPKDFPPFPQKLKFREPQREERICLVTTNFQTKSMSSMVSDTSCTFPSGDGIFWKHWIQTKDGQCGSPLVSTRDGFIVGIHSASNFTNTNNYFTSVPKNFMELFTNQEAQQWVSGWRLNADSVLWGGHKVFMVKPEEPFQPVKEATQL [L191F]	0.0707	0.0627	0.0851		0.0627	0.0685	0.0828		0.0625	0.0577	0.066	0.0645	0.0642		0.0649			0.0602	0.0881
MGESLFKGPRDYNPISSSICHLTNESDGHTTSLYGIGFGPFIITNKHLFRRNNGTLVVQSLHGVFKVKDTTTLQQHLVDGRDMIIIRMPKDFPPFPQKLKFREPQREERICLVTTNFQTKSMSSMVSDTSCTFPSGDGIFWKHWIQTKDGQCGSPLVSTRDGFIVGIHSASNFTNTNNYFTSVPKNFMELYTNQEAQQWVSGWRLNADSVLWGGHKVFMVKPEEPFQPVKEATQL [L191Y]	0.0436	0.061	0.0629			0.066	0.0517		0.0527		0.0195			0.0482	0.0642			0.0669	
MGESLFKGPRDYNPISSSICHLTNESDGHTTSLYGIGFGPFIITNKHLFRRNNGTLVVQSLHGVFKVKDTTTLQQHLVDGRDMIIIRMPKDFPPFPQKLKFREPQREERICLVTTNFQTKSMSSMVSDTSCTFPSGDGIFWKHWIQTKDGQCGSPLVSTRDGFIVGIHSASNFTNTNNYFTSVPKNFMELLMNQEAQQWVSGWRLNADSVLWGGHKVFMVKPEEPFQPVKEATQL [T192M]	0.0569	0.0639	0.0955	0.0662	0.0899	0.0792	0.0715		0.0596		0.0726		0.0754	0.0694	0.0668	0.0718	0.0628	0.0715	
